In ChEMBL document CHEMBL5606458, “ASAP - ZIKV NS2B-NS3 protease fluorescence single point” (2024):
About 160 (5.9%) of roughly 2,700 compounds showed an effect of 50% or more. The list shows a part of the results.

Molecular target: Nonstructural protein 3 (Zika virus) (UniProt A0A024AXB9)
[1] = PRVABC59, Concentration 50.0 uM, Number of replicates 1.0
[2] = PRVABC59, Concentration 15.0 uM, Number of replicates 1.0

Chain of UniProt A0A024AXB9 (A0A024AXB9 as listed by the source): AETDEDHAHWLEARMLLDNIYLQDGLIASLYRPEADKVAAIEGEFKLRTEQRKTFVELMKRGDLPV

## Cc1cc(N)cc(CNC(=O)c2ccccc2Cc2cccc3c(CO)cc(C)nc23)c1
PRVABC59, Concentration 49.95 uM, Number of replicates 2.0, Standard deviation 0.03145975642768365 %
  inhibition: 34.6%
PRVABC59, Concentration 99.9 uM, Number of replicates 2.0, Standard deviation 1.7408307334956623 %
  inhibition: 60.7%

## CCCN(C[C@H](O)COc1ccccc1C(=O)CCc1ccccc1)C(=O)C1CCN(c2ccc(C=O)cc2)CC1
[1]
  inhibition: 32.4%

## CNC(=O)c1cc(Cl)ccc1NS(=O)(=O)c1ccc(F)c(C(=O)N2CCCC2)c1
PRVABC59, Concentration 49.5 uM, Number of replicates 2.0, Standard deviation 4.918625223841024 %
  inhibition: 0.943%
PRVABC59, Concentration 99.01 uM, Number of replicates 2.0, Standard deviation 3.521387569111147 %
  inhibition: 4.53%
PRVABC59, Concentration 198.0 uM, Number of replicates 2.0, Standard deviation 3.3733929566625998 %
  inhibition: 9.77%

## Cc1cc(CO)c2cccc(Cc3ccccc3NC(=O)c3cccc(Cn4cncn4)c3)c2n1
PRVABC59, Concentration 49.95 uM, Number of replicates 2.0, Standard deviation 1.9900579035293746 %
  inhibition: -2.33%
PRVABC59, Concentration 99.9 uM, Number of replicates 2.0, Standard deviation 1.165532699789781 %
  inhibition: 0.115%

## O=Cc1ccc(N2CCC(C(=O)Nc3ccc(OC(F)F)cc3)CC2)cc1
[1]
  inhibition: 9.85%

## O=C(NCCc1csc(-c2ccncc2)n1)c1cc(Cl)ccc1NS(=O)(=O)c1ccc(Oc2ccccc2Cl)cc1
[2]
  inhibition: 31.3%

## CCCCCC(=O)N[C@@H](Cc1ccc(CN)cc1)C(=O)Nc1cccc(C(N)=O)c1
PRVABC59, Concentration 49.5 uM, Number of replicates 2.0, Standard deviation 2.7863703861974125 %
  inhibition: 3.11%
PRVABC59, Concentration 99.01 uM, Number of replicates 2.0, Standard deviation 1.994146105688083 %
  inhibition: 8.07%

## COc1cc(CNC(=O)c2cc(Cl)ccc2NS(=O)(=O)c2ccc(Oc3ccccc3Cl)cc2)cc(OC)c1OC
[2]
  inhibition: 19.3%

## O=S(=O)(c1ccc(Oc2ccccc2Cl)cc1)N1CCCCC1
PRVABC59, Concentration 49.5 uM, Number of replicates 2.0, Standard deviation 4.647075144080911 %
  inhibition: 2.52%
PRVABC59, Concentration 99.01 uM, Number of replicates 2.0, Standard deviation 2.1543833661046805 %
  inhibition: 2.07%
PRVABC59, Concentration 198.0 uM, Number of replicates 2.0, Standard deviation 2.3847652893231714 %
  inhibition: 5.34%

## Cc1cc(CO)c2cccc(NC(=O)c3nc(C4CCNCC4)oc3C)c2n1
PRVABC59, Concentration 49.95 uM, Number of replicates 2.0, Standard deviation 16.97136657317194 %
  inhibition: 81.5%
PRVABC59, Concentration 99.9 uM, Number of replicates 2.0, Standard deviation 2.022315036184036 %
  inhibition: 88.9%

## CNS(=O)(=O)c1ccc(Oc2ccccc2Cl)cc1
PRVABC59, Concentration 49.5 uM, Number of replicates 2.0, Standard deviation 2.117620524609962 %
  inhibition: 3.32%
PRVABC59, Concentration 99.01 uM, Number of replicates 2.0, Standard deviation 2.851061668270481 %
  inhibition: 6.03%
PRVABC59, Concentration 198.0 uM, Number of replicates 2.0, Standard deviation 3.362511651901451 %
  inhibition: 9.61%

## COc1cc(CCNC(=O)C2CCN(c3ccc(C=O)cc3)CC2)cc(OC)c1O
[1]
  inhibition: 28.9%

## CN(CCCOc1ccc(Br)cc1)C(=O)C1CCN(c2ccc(C=O)cc2)CC1
[1]
  inhibition: 3.72%

## Cc1cc(CO)c2cccc(CC(=O)NCCc3ncc[nH]3)c2n1
PRVABC59, Concentration 49.95 uM, Number of replicates 2.0, Standard deviation 0.020358613704702253 %
  inhibition: 12.5%
PRVABC59, Concentration 99.9 uM, Number of replicates 2.0, Standard deviation 0.02544995300481825 %
  inhibition: 32.3%

## O=Cc1ccc(N2CCC(C(=O)Nc3c(F)c(F)cc(F)c3F)CC2)cc1
[1]
  inhibition: 24.1%

## O=C(N[C@H](CO)[C@H](O)c1ccc([N+](=O)[O-])cc1)c1cc(Cl)ccc1NS(=O)(=O)c1ccc(Oc2ccccc2Cl)cc1
[2]
  inhibition: 37.4%

## C[C@H](NC(=O)c1cc(Cl)ccc1NS(=O)(=O)c1ccc(Oc2ccccc2Cl)cc1)c1cccc2ccccc12
[2]
  inhibition: 29.8%

## O=C(N[C@@H](CCO)c1ccccc1F)c1cc(Cl)ccc1NS(=O)(=O)c1ccc(Oc2ccccc2Cl)cc1
[2]
  inhibition: 37%

## Cc1cc(CO)c2cccc(C[C@H](NC(=O)c3cnn(Cc4c(C)noc4C)c3)C(=O)O)c2n1
PRVABC59, Concentration 49.95 uM, Number of replicates 2.0, Standard deviation 1.1541732811791248 %
  inhibition: -1.7%
PRVABC59, Concentration 99.9 uM, Number of replicates 2.0, Standard deviation 1.224427357199752 %
  inhibition: 1.57%

## CC(=O)N[C@@H](Cc1cnc[nH]1)C(=O)Nc1cccc2cccnc12
PRVABC59, Concentration 49.95 uM, Number of replicates 2.0, Standard deviation 1.898018247954012 %
  inhibition: 11.4%
PRVABC59, Concentration 99.9 uM, Number of replicates 2.0, Standard deviation 0.2720515008168473 %
  inhibition: 46.9%

## COc1cccc2c1OC[C@@H](NC(=O)c1cc(Cl)ccc1NS(=O)(=O)c1ccc(Oc3ccccc3Cl)cc1)C2
[2]
  inhibition: 25.4%

## Cc1cnccc1NC(=O)c1nc(C2CC2)n(C)n1
PRVABC59, Concentration 49.5 uM, Number of replicates 2.0, Standard deviation 4.720574485290029 %
  inhibition: 2.91%
PRVABC59, Concentration 99.01 uM, Number of replicates 2.0, Standard deviation 0.6899133958050134 %
  inhibition: 2.1%
PRVABC59, Concentration 198.0 uM, Number of replicates 2.0, Standard deviation 2.5180749032014678 %
  inhibition: 1.77%

## Cc1cc(CO)c2cccc(CC(=O)N(c3ncccn3)S(=O)(=O)c3ccc(N)cc3)c2n1
PRVABC59, Concentration 49.95 uM, Number of replicates 2.0, Standard deviation 0.08143445481880901 %
  inhibition: 93.4%
PRVABC59, Concentration 99.9 uM, Number of replicates 2.0, Standard deviation 0.09670172922339526 %
  inhibition: 93.5%

## CN(C(=O)C1CCN(c2ccc(C=O)cc2)CC1)C1CCN(C(=O)OC(C)(C)C)CC1
[1]
  inhibition: 20.8%

## Cc1cc(CO)c2cccc(Nc3cc(C)on3)c2n1
PRVABC59, Concentration 49.95 uM, Number of replicates 2.0, Standard deviation 0.1664787029188791 %
  inhibition: -8.71%

## CN(C)S(=O)(=O)[C@H]1C[C@H](NC(=O)c2cccc3c2NC(=O)[C@]2(CCCN2)C3)C1
PRVABC59, Concentration 49.5 uM, Number of replicates 2.0, Standard deviation 0.8522804207705638 %
  inhibition: 5.3%
PRVABC59, Concentration 99.01 uM, Number of replicates 2.0, Standard deviation 1.1504282386609923 %
  inhibition: 10.8%
PRVABC59, Concentration 198.0 uM, Number of replicates 2.0, Standard deviation 0.957686991498005 %
  inhibition: 18.8%

## O=C(NCCSc1ccc(Cl)cc1)c1cc(Cl)ccc1NS(=O)(=O)c1ccc(Oc2ccccc2Cl)cc1
[2]
  inhibition: 21.4%

## O=C(c1csc([C@H]2CCCNC2)n1)N1CC[C@H](c2cccnc2)C1
PRVABC59, Concentration 49.5 uM, Number of replicates 2.0, Standard deviation 1.6167440894523137 %
  inhibition: 2%
PRVABC59, Concentration 99.01 uM, Number of replicates 2.0, Standard deviation 1.2591585098620028 %
  inhibition: 4.03%
PRVABC59, Concentration 198.0 uM, Number of replicates 2.0, Standard deviation 1.4778944158999632 %
  inhibition: 5.76%

## CN1CCN(C2CCN(C(=O)C3CCN(c4ccc(C=O)cc4)CC3)CC2)CC1
[1]
  inhibition: 19.7%

## O=Cc1ccc(N2CCC(C(=O)NCCn3ncc4ccccc4c3=O)CC2)cc1
[1]
  inhibition: 28.1%

## COc1ccc(S(=O)(=O)N2CCC(C(=O)Nc3nccs3)CC2)cc1
PRVABC59, Concentration 49.5 uM, Number of replicates 2.0, Standard deviation 1.3012511996725602 %
  inhibition: -0.135%
PRVABC59, Concentration 99.01 uM, Number of replicates 2.0, Standard deviation 2.3185363216290313 %
  inhibition: 0.038%
PRVABC59, Concentration 198.0 uM, Number of replicates 2.0, Standard deviation 1.855141168414174 %
  inhibition: 1.27%

## CC(C)(C)[C@@H](NC(=O)OCc1ccccc1)C(=O)Nc1cccc(CN)c1
PRVABC59, Concentration 49.5 uM, Number of replicates 2.0, Standard deviation 0.837580021478449 %
  inhibition: -2.34%
PRVABC59, Concentration 99.01 uM, Number of replicates 2.0, Standard deviation 0.5497429243140284 %
  inhibition: -2.03%
PRVABC59, Concentration 198.0 uM, Number of replicates 2.0, Standard deviation 0.14002884754327624 %
  inhibition: 0.262%

## O=C(c1cc(Cl)ccc1NS(=O)(=O)c1ccc(Oc2ccccc2Cl)cc1)N(Cc1ccncc1)C[C@H]1CCCO1
[2]
  inhibition: 20.2%

## O=C1[C@@H]2CCCN2[C@H](c2ccc([N+](=O)[O-])cc2)N1c1ccc([N+](=O)[O-])cc1
PRVABC59, Concentration 49.5 uM, Number of replicates 2.0, Standard deviation 5.108750921879123 %
  inhibition: -1.98%
PRVABC59, Concentration 99.01 uM, Number of replicates 2.0, Standard deviation 2.6075310241346523 %
  inhibition: 3.35%
PRVABC59, Concentration 198.0 uM, Number of replicates 2.0, Standard deviation 2.497353851624263 %
  inhibition: 11.4%
